Measurements as given in PubChem BioAssay AID686979 (National Center for Advancing Translational Sciences (NCATS), 2013).
Values joined by “and” are separate entries in the source; they are usually repeats but may differ in a detail not shown here. Equal entries are not always repeated. Hit rate of the full screen: of about 420,000 compounds, about 50,000 (12%) were called active. Inconclusive results, whose numbers are uncertain, are shown with a selection of clear calls. The call rests on the fitted dose curve; in most records, active means well fitted inhibition curve with a large enough effect; inconclusive means small, poorly fitted or top-dose-only effect; inactive means flat fitted curve, though single readings scatter. Potencies of inconclusive entries are doubtful fits and often do not repeat.

assay: qHTS for Inhibitors of human tyrosyl-DNA phosphodiesterase 1 (TDP1): qHTS in cells in presence of CPT; details: chicken DT40 Tdp1-/-;hTDP1 cells + 20 nM CPT, ATP luminescence, 48 h; activity change, negative = growth inhibition: at 46.2 µM (top of the series); further: nearly all actives have a fitted effect of over 55% in size
Summary of the method: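 Chicken DT40 Tdp1-/- cells complemented with human TDP1, 400 cells/well, exposed to compounds plus 20 nM camptothecin for at least 48 h at 37 C; viability read as ATP content by CellTiter-Glo luminescence.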
On the % scale 0 is the no-effect control and ±100 the full control effect; potency means the concentration at half of the fitted maximal effect; tags describe the fitted curve by direction and shape.

Row | SMILES | Potency | activity change, negative = growth inhibition
1 | COc1cccc(NC(=O)CSc2nc3c(sc4ccccc43)c(=O)n2CCCN2CCCC2)c1 | inconclusive: 20.6 µM [inhibitor, single point] | 
2 | Cc1ccc(C(=O)Nc2cnc3sc(C)nn3c2=O)cc1 |  | inactive: -7.56%
3 | CCCCN(CC)Cc1ccc(CNC(=O)Nc2ccc(F)cc2)o1 | active: 4.47 µM | 
4 | Nc1cccnc1Sc1cccc(Cl)c1 |  | inactive: -19.5%
5 | CCc1nc2c(OCCC3CCCCC3)cccn2c1N(C)C(=O)c1ccccc1F | inconclusive: 29.1 µM [inhibitor, partial curve, poor fit] | 
6 | CC[C@@H](C)[C@@H]1CN([C@@H](CN2CCC[C@H]2CN2C(N)=NC[C@H]2CC(C)C)C(C)C)C(=N)N1CCCC1CCCC1 | inconclusive: 29.1 µM [inhibitor, single point] | 
7 | CCOC(=O)C1CCN(C(=O)c2cccc(S(=O)(=O)N(C)C3CCCCC3)c2)CC1 | inconclusive: 16.4 µM [inhibitor, single point] | 
8 | Cc1ccc(OCC(=O)OCC(=O)c2c(N)n(C)c(=O)n(C)c2=O)cc1C |  | inactive: -2.56%
9 | CCn1c(O)c(/C=N/N=C/c2ccccc2)c2ccc(C3=NNC(=O)CC3)cc21 | inconclusive: 14.6 µM [inhibitor, partial curve] | 
10 | CC(/C=N/Nc1nc(C)cc(C)n1)=C\c1ccc(C(C)C)cc1 | inconclusive: 29.1 µM [inhibitor, single point] | 
11 | Cc1ccc2nc(C)c3c(c2c1)N(c1ccccc1)CC3 | active: 11.6 µM | 
12 | Nc1nc(Nc2cccc(C(F)(F)F)c2)nc(C(F)(F)F)n1 | inconclusive: 29.1 µM [inhibitor, single point] | 
13 | COc1ccc(CN(C)CC(=O)NC(C)c2ccccc2)cc1OC (stereo not given) |  | inactive: -7.6%
14 | Cc1ccc(Cl)cc1N1CCN(C2CCCCC2NS(=O)(=O)c2ccccc2)CC1 (stereo not given) | active: 16.4 µM | 
15 | CCOc1ccc2nc(N3C(=O)/C(=C/c4ccccc4)NC3=S)sc2c1 | active: 23.1 µM | 
16 | C[C@@H]1CN([C@@H](C)CO)S(=O)(=O)c2ccc(Br)cc2O[C@H]1CN(C)C(=O)C1CCCCC1 | active: 25.9 µM | 
17 | CCN1C(=O)[C@H]2[C@@H](c3ccc(-c4ccc(C(C)=O)cc4)cc3)N[C@@](Cc3ccccc3)(C(=O)OC)[C@H]2C1=O | active: 13 µM | 
18 | O=C(Nc1ccccc1F)c1ccc2c(c1)CCN2S(=O)(=O)c1ccccc1 | inconclusive: 29.1 µM [inhibitor, single point] | 
19 | CC1CCc2nc(NC(=O)CN3CCN(Cc4ccc5c(c4)OCO5)CC3)sc2C1 (stereo not given) | active: 18.4 µM | 
20 | CCSc1nccc(-c2nn(-c3ccc(C)cc3)ccc2=O)n1 | active: 6.51 µM | 
21 | CCOC(=O)[C@@H]1[C@H]2COc3cc(OC)ccc3[C@H]2N2C(=O)N(c3cccc(C)c3)C(=O)[C@]12C | inconclusive: 29.1 µM [inhibitor, single point] | 
22 | Cc1ccc(-c2noc(-c3nnn(-c4ccc(Br)cc4F)c3C)n2)cc1 | inconclusive: 29.1 µM [inhibitor, single point] | 
23 | S=C(NCc1ccccc1)N1CCN(C2CCCCC2)CC1 | inconclusive: 29.1 µM [inhibitor, single point] | 
24 | Cc1cccn2c(=O)c(-c3nnn[nH]3)cnc12 |  | inactive: 4.87%

Row | SMILES | Potency | activity change, negative = growth inhibition
25 | Cc1nn(CC(=O)OCC(=O)Nc2c(C(C)C)cccc2C(C)C)c(C)c1[N+](=O)[O-] | inconclusive: 23.1 µM [inhibitor, single point] | 
26 | Cc1ccc(C(=O)NC(=S)N2CCN(C)CC2)cc1Br | inconclusive: 29.1 µM [inhibitor, single point] | 
27 | CCOc1ccc(CN(Cc2ccco2)S(=O)(=O)c2ccc(-n3cnnn3)c(OC)c2)cc1 | inconclusive: 29.1 µM [inhibitor, single point] | 
28 | COc1ccc(NC(=O)CN(c2ccccc2)S(=O)(=O)c2ccccc2)c(OC)c1 | inconclusive: 18.4 µM [inhibitor, single point] | 
29 | COc1cc(CNc2ccc(N3CCCC3)cc2)cc(Cl)c1OC | active: 2.31 µM | 
30 | CCOC(=O)[C@]12CCCC=C1N(Cc1ccco1)C(=O)[C@H](CC(=O)N1CCC(c3ccccc3)CC1)C2 | inconclusive: 23.1 µM [inhibitor, single point] | 
31 | S=C(N/N=C/c1ccc2ncccc2c1)Nc1ccccc1 | active: 23.1 µM | 
32 | O=C(NNc1ccccn1)C(c1ccccc1)c1ccccc1 |  | inactive: 8.99%
33 | O=C(Nc1nnc(-c2ccccc2)o1)C1CCCCC1 | inconclusive: 29.1 µM [inhibitor, single point] | 
34 | O=C(Nc1cccc(S(=O)(=O)Nc2ccc(Cl)cc2)c1)c1ccc[n+]([O-])c1 |  | inactive: -3.74%
35 | COc1cccc(-c2nnc3n2N=C(C(C)(C)C)CS3)c1 | active: 16.4 µM | 
36 | COc1ccc(NC(=S)NCCCc2ccccc2)cc1 | inconclusive: 29.1 µM [inhibitor, single point] | 
37 | CCc1c(C)sc2c1CCN(C(=O)Nc1cc(C)ccc1C)C2c1ccc(OC)cc1 (stereo not given) | inconclusive: 7.31 µM [inhibitor, single point] | 
38 | CCCCNc1ccc(C(CC(N)=O)NC(=O)c2ccccc2)cc1[N+](=O)[O-] (stereo not given) | active: 18.4 µM | 
39 | O=C(NNC(=S)Nc1ccc(F)cc1)C1CC1c1ccc(Cl)cc1 (stereo not given) | inconclusive: 23.1 µM [inhibitor, single point] | 
40 | O=c1[nH]c(Nc2ccc3c(c2)OCCO3)nnc1Cc1ccc(Cl)cc1 | inconclusive: 29.1 µM [inhibitor, single point] | 
41 | CCOc1ccc2oc(C(=O)OCC(=O)NC3CCCC3)c(C)c2c1 | inconclusive: 25.9 µM [inhibitor, single point] | 
42 | Cc1ccc(C)c(NC(=O)c2nnn(Cc3ccc(F)cc3Cl)c2N)c1 | active: 14.6 µM | 
43 | Cc1ccc2cc(CN(c3cccc(C)c3C)S(=O)(=O)c3ccccc3)c(=O)[nH]c2c1 | inconclusive: 29.1 µM [inhibitor, single point] | 
44 | COc1cc(S(=O)(=O)Nc2cccc(C)c2)ccc1NC(=O)c1ccncc1 | inconclusive: 23.1 µM [inhibitor, partial curve] | 
45 | COc1ccc(CCn2c(C)nc3ccccc3c2=O)cc1OC | inconclusive: 20.6 µM [inhibitor, single point] | 
46 | Cc1cc(CSc2ccccc2)ccc1NC(=O)COc1ccccc1 | inconclusive: 29.1 µM [inhibitor, single point] | 
47 | CC1(C(=O)NS(=O)(=O)c2ccc(C#N)cc2)CCN1C(=O)C1(c2ccc(Cl)cc2)CC1 (stereo not given) |  | inactive: -25.2%
48 | COc1ccc(N2CC(O)=C(c3nc(-c4ccc(Cl)cc4)cs3)C2=N)cc1 | inconclusive: 23.1 µM [inhibitor, partial curve] | 

Row | SMILES | Potency | activity change, negative = growth inhibition
49 | Oc1ccc(CNc2ccccc2)c2cccnc12 | active: 3.66 µM | 
50 | Fc1ccc(C(CCCn2nnc(-c3cccnc3)n2)c2ccc(F)cc2)cc1 | active: 16.4 µM | 
51 | Cc1cc(C)cc(NC(=O)c2cc(S(=O)(=O)N3CCCC3)ccc2F)c1 | inconclusive: 18.4 µM [inhibitor, single point] | 
52 | O=C(CC1SC(=O)N(Cc2cccc3ccccc23)C1=O)Nc1nccs1 (stereo not given) | inconclusive: 18.4 µM [inhibitor, partial curve, poor fit] | 
53 | O=C(Cc1n[nH]c(=O)c2ccccc12)Nc1cccc(S(=O)(=O)N2CCCC2)c1 | inconclusive: 10.3 µM [inhibitor, partial curve] | 
54 | O=C(Nc1ccc(F)cc1)Nc1nnc(-c2ccccc2)o1 | inconclusive: 29.1 µM [inhibitor, single point] | 
55 | O=c1oc2ccc3ccccc3c2cc1-c1nnc(Nc2cccc(C(F)(F)F)c2)s1 |  | inactive: -14%
56 | Cc1ccc2[nH]c(=O)c(C(c3nnnn3C(C)(C)C)N(Cc3ccco3)CC3CCCO3)cc2c1 (stereo not given) | inconclusive: 29.1 µM [inhibitor, single point] | 
57 | CN1CCc2c(sc3nc(NN)n(-c4ccc(Cl)cc4)c(=O)c23)C1 |  | inactive: -23.1%
58 | COC(=O)c1cnc(Oc2ccc(NC(=O)NC(=O)c3c(F)cccc3F)cc2)cc1C(F)(F)F |  | inactive: -6.26%
59 | COc1cc(OC)c(NC(=O)N2CCc3cc(S(=O)(=O)N4CCC(C)CC4)ccc32)cc1Cl | active: 10.3 µM | 
60 | CC(NC(=O)Nc1ccccc1F)C(C)(C)C (stereo not given) |  | inactive: -9.44%
61 | O=C(NCCc1ccccc1)c1cnc2sc(N3CCCCC3)nn2c1=O | active: 8.2 µM | 
62 | NNc1nc(-c2ccccc2)nc2sc3c(c12)CCCC3 | inconclusive: 23.1 µM [inhibitor, single point] | 
63 | N#C/C(=C\c1ccc(N2CCOCC2)o1)C(=O)NCCc1ccccc1 | inconclusive: 29.1 µM [inhibitor, single point] | 
64 | CC(=O)C1C(c2cccc(F)c2)c2c(n[nH]c2C)CC1(C)O (stereo not given) |  | inactive: -8.57%
65 | Cc1ccn2c(NC3CCCCC3)c(-c3cccc(SC4CCCCC4)c3)nc2c1 | active: 14.6 µM and active: 16.4 µM | 
66 | CCCCCc1nnc(NS(C)(=O)=O)s1 |  | inactive: -5.55%
67 | CCC1Oc2ccccc2N(CC(=O)NCCc2ccc(OC)c(OC)c2)C1=O (stereo not given) | inconclusive: 29.1 µM [inhibitor, single point] and inconclusive: 18.4 µM [inhibitor, single point] | 
68 | Cc1ccccc1CN1CCN(C(=O)c2ccc(F)cc2)CC1 | inconclusive: 10.3 µM [inhibitor, partial curve] | 
69 | CCOc1ccc(NCC(=O)N/N=C/C=C/c2ccccc2)cc1 | inconclusive: 23.1 µM [inhibitor, single point] | 
70 | CCOc1ccc(N/C=C/C(=O)c2ccc(OC)cc2)cc1 |  | inconclusive: -34.5% [inhibitor]
